Results published in PubChem BioAssay AID588855 (National Center for Advancing Translational Sciences (NCATS), 2011).
Among all 410,000 compounds or so, about 5,000 (1.2%) were called active. The shares of active, inactive and inconclusive entries below differ from those in the screen. Calls come from the whole dose curve; as a rule, active = well fitted inhibition curve with a large enough effect; inconclusive = small, poorly fitted or top-dose-only effect; inactive = no such curve, though single readings can be large or run the other way. A potency beside an inconclusive call is a rough fit, not a confirmed value.
Potency is the fitted concentration of half-maximal effect; tags give direction and shape of the fitted curve.

Experiment: qHTS for Inhibitors of TGF-b; note: nearly all actives have a fitted effect of over 65% in size
Details: HepG2 CAGA-GFP TGF-b/SMAD3 reporter, GFP fluorescence, 18 h, TGF-beta stimulated, 500 pg/mL final; series mostly up to 46.1 µM
Method in brief: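 Smad-responsive CAGA-GFP expression was quantified in HEPG2 cells exposed to compounds and 500 pg/mL final TGF-beta for 18 h at 37 degrees C; unstimulated wells defined full inhibition.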
With `O=S(=O)(/C=C/C=C/S(=O)(=O)c1ccccc1)c1ccccc1` the Potency was active: 3.55 µM.
In the case of `Cc1ccc(C2CC(=O)c3cnc(N4CCc5ccccc5C4)nc3C2)cc1` (stereo unspecified), the Potency is reported as “inactive”.
For `O=C(O)c1ccc2c(c1)C(=O)N(c1ccc(Nc3ccccc3)cc1)C2=O`, the Potency was “inactive”.
In the case of `Cc1cc(C)c(SCCc2ccncc2)c(C)c1`, the Potency is reported as inconclusive: 3.98 µM [inhibitor, full curve, poor fit].
For `COc1ccc(CC(=O)Nc2nc3ccc(F)cc3s2)cc1S(=O)(=O)N1CCOCC1`, the Potency was inconclusive: 28.2 µM [inhibitor, single point].
In the case of `CC(/C=N/NC(=O)Cn1cnc2ccccc21)=C\c1ccccc1`, the Potency is reported as inconclusive: 20 µM [inhibitor, single point].
For `NNC(=O)c1oc2ccccc2c1-n1cccc1`, the Potency was inconclusive: 15.8 µM [inhibitor, single point].
With `O=C1C=C(Nc2ccc(F)cc2)c2ccccc2C1=O` the Potency was active: 3.98 µM.
In the case of `COc1ccc(-c2nn3c(-c4ccccc4C)nnc3c3ccccc23)cc1`, the Potency is reported as inconclusive: 35.5 µM [inhibitor, single point].
For `Cc1ccc(Cl)cc1N1CCN(S(=O)(=O)c2ccc3c(c2)CC(C)N3C(=O)C2CCC2)CC1` (stereo unspecified), the Potency was “inactive”.
In the case of `CCOCCCNc1ncnc2onc(C)c12`, the Potency is reported as “inactive”.
In the case of `Cc1cccc(NC(=O)Nc2nnc(N(C)Cc3ccccc3)s2)c1`, the Potency is reported as “inactive”.
In the case of `CC(=O)n1c(-c2ccccc2)c(-c2ccccc2)n(C)c1=O`, the Potency is reported as “inactive”.
In the case of `COc1cccc(OC)c1C(=O)Nc1c(C)n(C)n(-c2ccccc2)c1=O`, the Potency is reported as inconclusive: 12.6 µM [inhibitor, single point].
With `S=C(NNc1nc(Nc2ccccc2)nc(N2CCCCC2)n1)NC1CCCCC1` the Potency was inconclusive: 35.5 µM [inhibitor, single point].
With `CC(=O)c1ccc(N2CCN(S(=O)(=O)c3ccc4c(c3)C(C)(C)C(=O)N4)CC2)cc1` the Potency was inconclusive: 10 µM [inhibitor, partial curve, poor fit].
In the case of `COc1cccc(/C=C/C(=O)Nc2ccc3nc(N4CCN(C)CC4)cc(C)c3c2)c1OC`, the Potency is reported as inconclusive: 35.5 µM [inhibitor, single point].
In the case of `Cc1ccc(N2C(=O)c3oc4ccccc4c(=O)c3C2c2cccc(O)c2)nc1` (stereo unspecified), the Potency is reported as inconclusive: 7.94 µM [inhibitor, partial curve, poor fit].
In the case of `CC(C)c1nc2ccc(C(=O)NC(C)c3ccccc3)cc2o1` (stereo unspecified), the Potency is reported as “inactive”.
For `COc1ccc(S(=O)(=O)NCC2CCC(C(=O)NCC(OC)OC)CC2)cc1` (stereo unspecified), the Potency was inconclusive: 6.31 µM [inhibitor, single point].
With `COc1ccc(C(=O)Nc2ccc(-c3nnc4n3CCCCC4)cc2)cc1OC` the Potency was inconclusive: 0.112 µM [inhibitor, full curve, poor fit].
With `COc1ccc2cc(C(=O)C3CCCN(C(=O)CCc4ccccn4)C3)ccc2c1` (stereo unspecified) the Potency was inconclusive: 22.4 µM [inhibitor, single point].
With `COc1ccc(C2C(C#N)=C(N)N(c3ccccc3)C3=C2C(=O)CCC3)cc1Cn1cc([N+](=O)[O-])cn1` (stereo unspecified) the Potency was inconclusive: 11.2 µM [inhibitor, partial curve, poor fit].
For `CC1(C)CC(=O)C(C(C2=C(O)CC(C)(C)CC2=O)c2ccc(Br)s2)C(=O)C1` (stereo unspecified), the Potency was active: 10 µM.
For `C#Cc1ccc([C@H]2C=C(C(=O)NCc3ccccc3)O[C@@H](OCC)[C@@H]2CCCO)cc1`, the Potency was inconclusive: 35.5 µM [inhibitor, single point].
With `COc1cc(-c2nc3nc(C)cc(C)n3c2Nc2ccc(Cl)cc2)ccc1O` the Potency was active: 12.6 µM.
For `Cc1c(O)c2c(c(C(=O)/C=C/c3ccccc3)c1O)OC(C)(C)C=C2`, the Potency was active: 11.2 µM.
In the case of `O=C(NC1CCCCC1)C(Cc1ccccc1)N1C(=O)C2C3CCC(C3)C2C1=O` (stereo unspecified), the Potency is reported as inconclusive: 15.8 µM [inhibitor, single point].
For `O=C(O)C1(c2ccccc2)CCN(S(=O)(=O)c2ccc(F)c(F)c2)CC1`, the Potency was “inactive”.
For `O=C(CCNC(=O)OCC1c2ccccc2-c2ccccc21)NOCc1ccccc1`, the Potency was “inactive”.
For `COc1ccc(-n2c(=O)c(CCC(=O)N3CCN(c4ccccc4O)CC3)nc3ccccc32)cc1`, the Potency was inconclusive: 7.08 µM [inhibitor, full curve, poor fit].
For `CN(C(=O)CCc1ccccc1F)C1CCCN(Cc2ccccc2F)C1` (stereo unspecified), the Potency was inconclusive: 20 µM [inhibitor, single point].
For `C=C1C2(C(=O)Nc3ccc(SC(F)F)cc3)CCC(C2)C1(C)C` (stereo unspecified), the Potency was inconclusive: 10 µM [inhibitor, partial curve].
For `CC(=O)Nc1cccc(-c2ccnc3c2CC(C(=O)Nc2ccc(Cl)cc2)O3)c1` (stereo unspecified), the Potency was “inactive”.
In the case of `CC1(C(=O)NCCc2ccccc2)Cc2c(-c3cccc(C(N)=O)c3)ccnc2O1` (stereo unspecified), the Potency is reported as “inactive”.
For `CCC1CCCCN1CCCNC(=O)c1ccc2c(c1)N(Cc1ccc(F)cc1)C(=O)c1ccccc1S2=O` (stereo unspecified), the Potency was inconclusive: 31.6 µM [inhibitor, single point].
In the case of `c1csc(CN2CCN(Cc3cccs3)C2c2cccs2)c1`, the Potency is reported as inconclusive: 12.6 µM [inhibitor, single point].
For `O=C(Nc1cccs1)Nc1ccc(Br)cc1F`, the Potency was active: 11.2 µM.
With `O=C(Nc1ccccc1)Oc1cccc2cccnc12` the Potency was active: 8.91 µM.
For `O=C1NC(c2cccc3ccccc23)Nc2ccc(Cl)cc21` (stereo unspecified), the Potency was active: 3.98 µM.
For `CCn1c(SCC(=O)N2CCCc3ccccc32)nc2c1c(=O)n(C)c(=O)n2C`, the Potency was inconclusive: 6.31 µM [inhibitor, single point].
With `CCc1cc2c(cc3c(=O)n(CC(=O)NC4CCC(C)CC4)ncn32)s1` (stereo unspecified) the Potency was “inactive”.
For `O=C(NCc1cccs1)c1cc(-c2ccccc2)nc2ccccc12`, the Potency was “inactive”.
With `CN1CCC[C@H]1CCNC(=O)c1c(-c2ccsc2)sc2ccccc12` the Potency was inconclusive: 0.355 µM [inhibitor, full curve, poor fit].
For `COc1ccc(S(=O)(=O)N2CCN(Cc3nc4ccc(C)cc4o3)CC2)cc1Cl`, the Potency was inconclusive: 2.82 µM [inhibitor, full curve].
With `S=C(NNc1ccnc2cc(Cl)ccc12)Nc1ccccc1Cl` the Potency was inconclusive: 15.8 µM [inhibitor, single point].
